Measured values reported in article PMC6919601, “Identification of Plasmodium dipeptidyl aminopeptidase allosteric inhibitors by high throughput screening” (PLoS ONE, 2019).
Where “and” joins values, the source holds several entries; their conditions need not be identical. Equal values may be shown once. In all, about 110,000 compounds went through this assay and about 230 (0.21%) showed an effect of 50% or more. The list shows a part of the results.

target: DPAP1 (Plasmodium falciparum, UniProt Q8IIJ9); test: primary screen, percent inhibition; read by cleavage of a fluorogenic dipeptide substrate; higher = more effect of the substance; set-up: species or system P. falciparum D10 trophozoite lysates; single well
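Note: 30 min substrate incubation versus DMSO and 10 µM JCP410 controls.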

Chain of DPAP1 (Q8IIJ9 whole entry, looked up): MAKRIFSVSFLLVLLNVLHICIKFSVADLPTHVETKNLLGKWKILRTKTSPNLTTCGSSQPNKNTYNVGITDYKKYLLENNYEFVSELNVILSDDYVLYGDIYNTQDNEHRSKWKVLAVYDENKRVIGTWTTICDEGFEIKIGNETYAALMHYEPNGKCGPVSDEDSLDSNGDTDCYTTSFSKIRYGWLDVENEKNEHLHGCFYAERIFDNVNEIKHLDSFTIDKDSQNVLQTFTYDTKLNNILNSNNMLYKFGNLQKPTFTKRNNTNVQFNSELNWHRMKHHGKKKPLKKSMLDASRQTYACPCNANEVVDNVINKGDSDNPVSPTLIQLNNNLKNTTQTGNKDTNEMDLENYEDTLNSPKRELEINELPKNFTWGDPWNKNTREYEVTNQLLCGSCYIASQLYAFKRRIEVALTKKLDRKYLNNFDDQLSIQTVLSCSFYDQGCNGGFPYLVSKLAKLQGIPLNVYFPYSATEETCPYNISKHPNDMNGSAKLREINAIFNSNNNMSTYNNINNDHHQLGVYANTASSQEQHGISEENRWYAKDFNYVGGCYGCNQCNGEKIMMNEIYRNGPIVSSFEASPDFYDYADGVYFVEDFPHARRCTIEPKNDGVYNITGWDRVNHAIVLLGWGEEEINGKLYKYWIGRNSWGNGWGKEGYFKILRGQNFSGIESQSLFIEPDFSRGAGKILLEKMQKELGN

Compound	% Inhibition @ 10 uM
COc1cccc(OCCCN2CCCCC2)c1	1.35%
COc1ccc(Cc2nnc3c4cnn(-c5ccccc5)c4ncn23)cc1OC	2.95%
CC1=CCC2C(=O)N(c3ccc(C#N)c(Cl)c3)C(=O)C2C1 (stereo not drawn)	-3.04%
Cc1cc(C)c2c(-n3cccc3)c(C(=O)N(C)Cc3ccccc3)sc2n1	6.91%
O=[N+]([O-])c1ccccc1S(=O)(=O)N1CCOCC1	-1.77%
O=C(c1ccc(CS(=O)c2ccc(Cl)cc2)o1)N1CCN(c2ccccn2)CC1 (stereo not drawn)	3.77%
O=C(NCc1ccccn1)c1ccc2nc(N3CCCCC3)sc2c1	1.03%
O=C(Cn1ncc2c3ccccc3n(Cc3cccc(Cl)c3)c2c1=O)N1CCC2(CC1)OCCO2	-1.58%
CC(C)(C)C(=O)CC(=O)Nc1cc(N)ccc1Cl	3.42%
O=C(O)CCC(=O)Nc1cccc(Cl)c1	2.4%
O=C(CCN1CCCCC1)Nc1ccc(Cl)cc1C(=O)c1ccccc1	0.196%
CCCCCn1c(=O)c(C(=O)Nc2ccc(OCC)cc2)c(O)c2ccccc21	-6.51%
COc1ccc2c(c1)C(=O)Nc1cc(Cl)ccc1N2	0.843%
CCOC(=O)c1cc(-c2ccc(C)cc2)n(CCC(=O)Nc2cccnc2)c1C	3.32%
CCN(CC)c1ncnc2scc(C3COc4ccccc4O3)c12 (stereo not drawn)	4.75% and 4.44%
Cn1nc(C(=O)N2CCCN(Cc3ccccc3F)C2)c2c1-c1ccccc1S(=O)(=O)C2	3.71%
CC(C)(C)C1CCc2c(sc3[nH]c(=S)[nH]c(=O)c23)C1 (stereo not drawn)	7.19%
CC(c1ccccc1)N1C(=O)NC(NS(=O)(=O)c2ccccc2)(C(F)(F)F)C1=O (stereo not drawn)	5.12%
Cc1nc2sc(C(=O)Nc3ccc4ccccc4c3)c(N)c2c(C)c1C	29.1%
CCO/C(O)=C1/C(C)=Nc2nc3ccccc3n2C1c1ccccc1OC (stereo not drawn)	1.91%
CCCOC(=O)C1=C(C)NC(=O)NC1c1cccc(Br)c1 (stereo not drawn)	4.38%
O=C(O)COc1ccc(S(=O)(=O)NCCc2ccccc2)cc1	0.315%
Cc1ccccc1N1CC(=O)NC1=O	0.132%
CNc1c(NS(=O)(=O)c2cc(Cl)ccc2OC)c(=O)oc2ccccc12	-5.05%
Cc1oc2ncnc(N3CCOCC3)c2c1C(=O)NCCN(Cc1ccco1)C1CCCC1	-1.43%

Compound	% Inhibition @ 10 uM
c1ccc2nc3c(nc2c1)CCc1nonc1-3	2%
O=C(NCC1CCCO1)c1cc2nc(-c3cccs3)cc(C(F)(F)Cl)n2n1 (stereo not drawn)	-7.1%
O=C(Nc1cccc(-c2nc3ncccc3o2)c1)c1ccccc1	1.34%
O=C(c1nn2c(c1Br)NC(c1ccccc1)CC2C(F)(F)F)N1CCN2CCCC2C1 (stereo not drawn)	7.5%
Cc1cc(NC(=O)CSc2nc3c(c(-c4cccnc4)c2C#N)CCC3)no1	-7.75%
CCOC(=O)C1=C(CN(CCOC)Cc2ccco2)NC(=O)NC1c1cccs1 (stereo not drawn)	3.85%
CCC[C@@H](/C=C/S(=O)(=O)c1ccccc1)NC(=O)[C@H](Cc1ccccc1)NC(=O)N1CCC(N2CCOCC2)CC1	-3.04%
O=C(Cn1nc(-c2ccc(Cl)cc2)ccc1=O)NCc1cccnc1	-5.43%
COc1ccc(C(=O)Nc2ccccc2C(=O)NCc2cccnc2)cc1	1.27%
CCC(C)Sc1nc(O)c2cnn(-c3ccc(F)cc3)c2n1 (stereo not drawn)	-0.363%
Cc1ccccc1C(=O)N1CCN(c2ccc(F)cc2)CC1	0.526%
O=c1oc2ccc3ccccc3c2cc1-c1csc(NCc2ccc(F)cc2)n1	2.4%
c1ccc(-c2ccc(CN3CCN(c4ncccn4)CC3)cc2)cc1	1.55%
O=C(O)c1cc2c(s1)CS(=O)(=O)C2	1.42%
Cc1c[nH]c2cccc(OCC(O)CNC(C)(C)C)c12 (stereo not drawn)	0.00178%
CC1(C)CC2=NC3=C(C(=O)CC(C)(C)C3)C(c3cc(Cl)c(O)c(Cl)c3)C2=C(O)C1 (stereo not drawn)	13.2%
CC(C)C[C@H](NC(=O)c1ccc(NC(=O)OCCCc2cccnc2)cc1)C(=O)NCC#N	-0.778%
O=C(c1cc(-c2ccc(Cl)cc2)n[nH]1)N1CCCCCC1	-2.74%
CCCCN(CCCC)C(=O)c1ccc(C/N=c2\c(O)c(O)\c2=N/C2CCCC2)cc1	3.24%
C/N=C1/S/C(=C\c2ccc(N3Cc4ccccc4C3)cc2)C(=O)N1C	-5.19%
O=C(Nc1cc(Cl)c(Cl)cc1Cl)c1ccc(Br)cc1	0.526%
CC[C@H](NC(=O)[C@H](Cc1c(F)cc(F)cc1F)NC(=O)c1ccc(-c2ccccc2Cl)cc1)C(=O)c1nc2ccccc2o1	-1.82%
CCN(CC)S(=O)(=O)c1cccc(C(=O)Nc2ccc(Br)cc2)c1	-2.55%
Nc1ccc(Cc2ccc(N)c(Cl)c2)cc1Cl	1.64%
CCc1nc2ccc(C(=O)N(C)Cc3ccccc3)cc2nc1CC	3.1%

Compound	% Inhibition @ 10 uM
COc1cc2sc3c(O)nc4ccccc4c3c2cc1OC	4.42%
COc1ccc(Cl)cc1NC(=O)CN(Cc1ccc(Cl)cc1)S(=O)(=O)c1ccccc1	-2.92%
Cc1nc2ccccc2n1CC(O)Cn1c(C(F)(F)F)nc2ccccc21 (stereo not drawn)	0.163%
O=C(CN1CCCCCC1)N1CCn2c3c(c4cc(C5CCCCC5)ccc42)CCCC31 (stereo not drawn)	0.716%
COc1cc(OC)cc(C(=O)NCC(C)C)c1	4.42%
CCc1c2ccc(C)n2cc[n+]1CC(=O)c1ccccc1	-2.07%
Oc1nc(NCc2ccco2)nnc1Cc1ccccc1Cl	-3.01%
Cc1ccc2oc(=O)c3cc(C(=O)Nc4cccnc4Cl)sc3c2c1	-0.0593%
CC(=O)N(CCCN(C)C)c1nc2ccc(C)cc2s1	0.49%
COCCNC(=O)CS(=O)Cc1nc(-c2cccc(C)c2)oc1C (stereo not drawn)	-2.85%
O=C(NCc1ccccc1)C(CS(=O)(=O)Cc1ccccc1)N1Cc2ccccc2C1=O (stereo not drawn)	0.56%
O=C(O)C1C2CCC(C2)C1C(=O)N1CCN(c2ccccc2F)CC1 (stereo not drawn)	-5.26%
CC(=O)Nc1sc2c(c1CN1CCN(Cc3ccccc3)CC1)CCCC2	17.4%
O=C(N/C(=C\c1cccnc1)c1nc2ccccc2[nH]1)c1cccc(Br)c1	-7.08%
Cn1c(=O)c2c(-c3ccccc3)n3ncccc3c2n(C)c1=O	-0.994%
CCSC1=NSC2=NC(=O)/C(=C\c3ccc(O)cc3)C(=N)N12	0.287%
Cc1cc(C)c(C(=O)/C=C/c2ccc(Cl)cc2Cl)c(O)n1	3%
CC[C@H](C)[C@H](NC(=O)c1ccc(N(C)C)cc1)C(=O)NCC#N	-11%
CC(C)CC(NC(=O)CCN1C(=O)c2ccccc2C1=O)c1ccccc1 (stereo not drawn)	-0.992%
CCc1ccc(C2CC(c3ccc(OC)c(OC)c3)=NN2C(C)=O)cc1 (stereo not drawn)	8.73%
O=C(NCCc1cccs1)c1cnn(-c2ccccc2)c1-n1cccc1	-7.44%
N#C/C(=C\c1cc(Br)ccc1O)c1nc2ccccc2s1	5.7%
CCCC[C@H](NC(=O)[C@@H](NC(C)=O)C(C)C)C(=O)c1nc2ccccc2o1	2.86%
CC(C)C(=O)Nc1ccc2oc3ccccc3c2c1	-0.653%
O=C(CCC(=O)n1ncc2ccc(Cl)cc21)NC1CCCc2ccccc21 (stereo not drawn)	30.1%

Compound	% Inhibition @ 10 uM
C=C(C)Cn1c(SCC(C)C)nc2c1c(=O)[nH]c(=O)n2C	2.51%
CCOC(=O)N1CCN(c2c(-c3ccc(C(C)C)cc3)c(=O)c2=O)CC1	1.42%
CC1=CC(C)(C)N(Cc2ccc([N+](=O)[O-])cc2)c2ccccc21	-2.55%
CN(C)CC/N=C/c1c(O)[nH]c2ccccc12	1.97%
CCN(CCN(C)C)C(=O)Cn1ncc2c(=O)oc3ccccc3c21	2.85%
N#Cc1c(-c2ccccc2F)n2cnnc2n(Cc2ccccc2F)c1=O	4.31%
CC(=O)c1c(C(C)=O)c(C)n(NC(=O)c2ccccc2O)c1C	-3.4%
Cc1sc2ncnc(N3CCN(Cc4ccc5c(c4)OCO5)CC3)c2c1C	-6.02%
Cc1ccc(C(=O)N/C(=C/c2cccnc2)C(=O)Nc2ccccc2C)cc1	4.65%
O=C(CSc1nnc(-c2ccc(Cl)cc2Cl)n1-c1ccccc1)N1CCOCC1	5.98%
Cc1ccc2oc(=O)c3cc(C(=O)N4CCN(C)CC4)sc3c2c1	-0.0593%
CCc1ccc(NC(=O)Cn2c(SC)nc3ccccc32)cc1	3.8%
CCN1C(=O)NC(=O)/C(=C\c2cn(CC(=O)NCC3CCCO3)c3ccccc23)C1=O (stereo not drawn)	-5.17%
COC(=O)c1sccc1NC(=S)N1CCN(C(=O)c2ccco2)CC1	-4.23%
CCC(O)(CCN1CCCCC1)c1ccccc1 (stereo not drawn)	3.19%
CCC(=O)N1N=C(c2ccccc2)CC1c1cc2cc(OC)c(OC)cc2nc1Cl (stereo not drawn)	6.79%
CC1CCN(S(=O)(=O)c2cc(F)ccc2CN2C(=O)c3cccnc3C2=O)CC1	-4.4%
N#CC1=C(N)Oc2cc(O)ccc2C1c1ccccc1Br (stereo not drawn)	-1.98%
COc1ccc(CN2CCCC(C)C2)c(C)c1C (stereo not drawn)	1.62%
O=C(NCCN1CCOCC1)C1CC2CCC1C2 (stereo not drawn)	-1.54%
CCCC1=NN2C(=N)/C(=C/c3ccccc3)C(=O)N=C2S1	10.1%
CCCSC1=C(C#N)C(c2ccc(Cl)cc2Cl)CC(=O)N1 (stereo not drawn)	13.2%
COc1ccc(OC)c(C2C3=C(O)CC(C)(C)CC3=Nc3ccc4ncccc4c32)c1 (stereo not drawn)	6.13%
CC(C)(C)NC(=O)c1oc2ccccc2c1NC(=O)COc1ccccc1	2.77%
